# Reference: PMC12820563
# Some of the results follow. The list includes weakly bound sequences.
# Target: T1, MBP-FoxP3dN (UniProt Q99JB6)
# T1 sequence: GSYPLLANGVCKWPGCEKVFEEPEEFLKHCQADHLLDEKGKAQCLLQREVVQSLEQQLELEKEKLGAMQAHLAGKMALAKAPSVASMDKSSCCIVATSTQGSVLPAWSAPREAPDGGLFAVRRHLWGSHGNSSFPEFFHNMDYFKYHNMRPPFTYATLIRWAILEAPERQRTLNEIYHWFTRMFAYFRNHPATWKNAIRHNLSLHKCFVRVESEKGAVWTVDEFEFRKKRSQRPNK
# Experiment: PD-seq (MBP pull-down with sequencing)
# Conditions: 20 mM Tris-HCl pH 7.5, 100 mM NaCl, 1.5 mM MgCl2, 0.4 uM protein, 0.1 uM dsDNA library, 30 min, room temperature, amylose pull-down; high values mean tight binding; double strand, one strand shown
row,Sequence,binding signal (RPM ratio (pull-down/input))
1,GATGATTGTTCTCCCAGCTGATGAATTTAAATGGTCGAGTAAACAAATTTTCCTAATCTTTCTGTTCAAGCGCCATCTAC,0.498
2,GATGATTGTTCTCCCAGCTGATGAATTATCAACTTCGAGTAAACAAATTTTCCTAATCTTTCTGTTCAAGCGCCATCTAC,0.411
3,GATGATTGTTCTCCCAGCTGATGAATTCCATGCCTCGAGTAAACAAATTTTCCTAATCTTTCTGTTCAAGCGCCATCTAC,0.597
4,GATGATTGTTCTCCCAGCTGATGAATTCCAGATTTCGAGTAAACAAATTTTCCTAATCTTTCTGTTCAAGCGCCATCTAC,0.238
5,GATGATTGTTCTCCCAGCTGATGAATTGTTGATATCGAGTAAACAAATTTTCCTAATCTTTCTGTTCAAGCGCCATCTAC,3.49
6,GATGATTGTTCTCCCAGCTGATGAATTGGGCGATTCGAGTAAACAAATTTTCCTAATCTTTCTGTTCAAGCGCCATCTAC,0.974
7,GATGATTGTTCTCCCAGCTGATGAATTGGTTCTATCGAGTAAACAAATTTTCCTAATCTTTCTGTTCAAGCGCCATCTAC,0.37
8,GATGATTGTTCTCCCAGCTGATGAATTCAGGCGATCGAGTAAACAAATTTTCCTAATCTTTCTGTTCAAGCGCCATCTAC,0.508
9,GATGATTGTTCTCCCAGCTGATGAATTTTCATAATCGAGTAAACAAATTTTCCTAATCTTTCTGTTCAAGCGCCATCTAC,0.381
10,GATGATTGTTCTCCCAGCTGATGAATTGTTACCCTCGAGTAAACAAATTTTCCTAATCTTTCTGTTCAAGCGCCATCTAC,0.738
11,GATGATTGTTCTCCCAGCTGATGAATTGACGGCCTCGAGTAAACAAATTTTCCTAATCTTTCTGTTCAAGCGCCATCTAC,0.45
12,GATGATTGTTCTCCCAGCTGATGAATTCCTTGCTTCGAGTAAACAAATTTTCCTAATCTTTCTGTTCAAGCGCCATCTAC,0.317
13,GATGATTGTTCTCCCAGCTGATGAATTCTTTGGTTCGAGTAAACAAATTTTCCTAATCTTTCTGTTCAAGCGCCATCTAC,0.309
14,GATGATTGTTCTCCCAGCTGATGAATTAGGAAAATCGAGTAAACAAATTTTCCTAATCTTTCTGTTCAAGCGCCATCTAC,0.151
15,GATGATTGTTCTCCCAGCTGATGAATTTTTGACCTCGAGTAAACAAATTTTCCTAATCTTTCTGTTCAAGCGCCATCTAC,0.237
16,GATGATTGTTCTCCCAGCTGATGAATTTTGACTCTCGAGTAAACAAATTTTCCTAATCTTTCTGTTCAAGCGCCATCTAC,2.06
17,GATGATTGTTCTCCCAGCTGATGAATTACTGAAGTCGAGTAAACAAATTTTCCTAATCTTTCTGTTCAAGCGCCATCTAC,0.235
18,GATGATTGTTCTCCCAGCTGATGAATTTTAGGGATCGAGTAAACAAATTTTCCTAATCTTTCTGTTCAAGCGCCATCTAC,0.305
19,GATGATTGTTCTCCCAGCTGATGAATTTACCGATTCGAGTAAACAAATTTTCCTAATCTTTCTGTTCAAGCGCCATCTAC,0.399
20,GATGATTGTTCTCCCAGCTGATGAATTTTTAAGGTCGAGTAAACAAATTTTCCTAATCTTTCTGTTCAAGCGCCATCTAC,0.186
21,GATGATTGTTCTCCCAGCTGATGAATTAATGCATTCGAGTAAACAAATTTTCCTAATCTTTCTGTTCAAGCGCCATCTAC,6.89

row,Sequence,binding signal (RPM ratio (pull-down/input))
1,GATGATTGTTCTCCCAGCTGATGAATTGCCAAGTTCGAGTAAACAAATTTTCCTAATCTTTCTGTTCAAGCGCCATCTAC,0.424
2,GATGATTGTTCTCCCAGCTGATGAATTGAGTGTGTCGAGTAAACAAATTTTCCTAATCTTTCTGTTCAAGCGCCATCTAC,1.79
3,GATGATTGTTCTCCCAGCTGATGAATTCTAGAGATCGAGTAAACAAATTTTCCTAATCTTTCTGTTCAAGCGCCATCTAC,0.212
4,GATGATTGTTCTCCCAGCTGATGAATTGAGCAAATCGAGTAAACAAATTTTCCTAATCTTTCTGTTCAAGCGCCATCTAC,0.535
5,GATGATTGTTCTCCCAGCTGATGAATTCGGGTTTTCGAGTAAACAAATTTTCCTAATCTTTCTGTTCAAGCGCCATCTAC,0.554
6,GATGATTGTTCTCCCAGCTGATGAATTGATGGCTTCGAGTAAACAAATTTTCCTAATCTTTCTGTTCAAGCGCCATCTAC,0.598
7,GATGATTGTTCTCCCAGCTGATGAATTGGGGGAGTCGAGTAAACAAATTTTCCTAATCTTTCTGTTCAAGCGCCATCTAC,0.355
8,GATGATTGTTCTCCCAGCTGATGAATTGCTATCATCGAGTAAACAAATTTTCCTAATCTTTCTGTTCAAGCGCCATCTAC,1.18
9,GATGATTGTTCTCCCAGCTGATGAATTACACATGTCGAGTAAACAAATTTTCCTAATCTTTCTGTTCAAGCGCCATCTAC,0.677
10,GATGATTGTTCTCCCAGCTGATGAATTCGTAGGATCGAGTAAACAAATTTTCCTAATCTTTCTGTTCAAGCGCCATCTAC,0.344
11,GATGATTGTTCTCCCAGCTGATGAATTGATACTTTCGAGTAAACAAATTTTCCTAATCTTTCTGTTCAAGCGCCATCTAC,0.809
12,GATGATTGTTCTCCCAGCTGATGAATTGTAGTCGTCGAGTAAACAAATTTTCCTAATCTTTCTGTTCAAGCGCCATCTAC,0.76
13,GATGATTGTTCTCCCAGCTGATGAATTTCAAAAGTCGAGTAAACAAATTTTCCTAATCTTTCTGTTCAAGCGCCATCTAC,0.161
14,GATGATTGTTCTCCCAGCTGATGAATTCTTGCAGTCGAGTAAACAAATTTTCCTAATCTTTCTGTTCAAGCGCCATCTAC,0.519
15,GATGATTGTTCTCCCAGCTGATGAATTGTACTATTCGAGTAAACAAATTTTCCTAATCTTTCTGTTCAAGCGCCATCTAC,0.669
16,GATGATTGTTCTCCCAGCTGATGAATTCTCTATTTCGAGTAAACAAATTTTCCTAATCTTTCTGTTCAAGCGCCATCTAC,0.3
17,GATGATTGTTCTCCCAGCTGATGAATTGTCGCAGTCGAGTAAACAAATTTTCCTAATCTTTCTGTTCAAGCGCCATCTAC,0.66
18,GATGATTGTTCTCCCAGCTGATGAATTGAGAATGTCGAGTAAACAAATTTTCCTAATCTTTCTGTTCAAGCGCCATCTAC,0.563
19,GATGATTGTTCTCCCAGCTGATGAATTTGATTTATCGAGTAAACAAATTTTCCTAATCTTTCTGTTCAAGCGCCATCTAC,2.99
20,GATGATTGTTCTCCCAGCTGATGAATTGGGCCAGTCGAGTAAACAAATTTTCCTAATCTTTCTGTTCAAGCGCCATCTAC,1.05
21,GATGATTGTTCTCCCAGCTGATGAATTCCGGCGTTCGAGTAAACAAATTTTCCTAATCTTTCTGTTCAAGCGCCATCTAC,1.07

row,Sequence,binding signal (RPM ratio (pull-down/input))
1,GATGATTGTTCTCCCAGCTGATGAATTTTACAACTCGAGTAAACAAATTTTCCTAATCTTTCTGTTCAAGCGCCATCTAC,0.327
2,GATGATTGTTCTCCCAGCTGATGAATTCCAGACATCGAGTAAACAAATTTTCCTAATCTTTCTGTTCAAGCGCCATCTAC,0.3
3,GATGATTGTTCTCCCAGCTGATGAATTCCTTAGATCGAGTAAACAAATTTTCCTAATCTTTCTGTTCAAGCGCCATCTAC,0.189
4,GATGATTGTTCTCCCAGCTGATGAATTTCTCTGTTCGAGTAAACAAATTTTCCTAATCTTTCTGTTCAAGCGCCATCTAC,0.339
5,GATGATTGTTCTCCCAGCTGATGAATTCCTTCTTTCGAGTAAACAAATTTTCCTAATCTTTCTGTTCAAGCGCCATCTAC,0.237
6,GATGATTGTTCTCCCAGCTGATGAATTCGGTTCATCGAGTAAACAAATTTTCCTAATCTTTCTGTTCAAGCGCCATCTAC,0.682
7,GATGATTGTTCTCCCAGCTGATGAATTTGTTCATTCGAGTAAACAAATTTTCCTAATCTTTCTGTTCAAGCGCCATCTAC,2.23
8,GATGATTGTTCTCCCAGCTGATGAATTGGCACTGTCGAGTAAACAAATTTTCCTAATCTTTCTGTTCAAGCGCCATCTAC,0.397
9,GATGATTGTTCTCCCAGCTGATGAATTTTATCACTCGAGTAAACAAATTTTCCTAATCTTTCTGTTCAAGCGCCATCTAC,1.19
10,GATGATTGTTCTCCCAGCTGATGAATTGCCTTGATCGAGTAAACAAATTTTCCTAATCTTTCTGTTCAAGCGCCATCTAC,0.523
11,GATGATTGTTCTCCCAGCTGATGAATTCTTTACCTCGAGTAAACAAATTTTCCTAATCTTTCTGTTCAAGCGCCATCTAC,0.325
12,GATGATTGTTCTCCCAGCTGATGAATTGAGTTTTTCGAGTAAACAAATTTTCCTAATCTTTCTGTTCAAGCGCCATCTAC,1.67
13,GATGATTGTTCTCCCAGCTGATGAATTTGATATGTCGAGTAAACAAATTTTCCTAATCTTTCTGTTCAAGCGCCATCTAC,4.08
14,GATGATTGTTCTCCCAGCTGATGAATTGCACGGCTCGAGTAAACAAATTTTCCTAATCTTTCTGTTCAAGCGCCATCTAC,0.535
15,GATGATTGTTCTCCCAGCTGATGAATTTAAAGGCTCGAGTAAACAAATTTTCCTAATCTTTCTGTTCAAGCGCCATCTAC,0.392
16,GATGATTGTTCTCCCAGCTGATGAATTCAGTCGATCGAGTAAACAAATTTTCCTAATCTTTCTGTTCAAGCGCCATCTAC,0.304
17,GATGATTGTTCTCCCAGCTGATGAATTGCTATATTCGAGTAAACAAATTTTCCTAATCTTTCTGTTCAAGCGCCATCTAC,0.892
18,GATGATTGTTCTCCCAGCTGATGAATTCCTGAGGTCGAGTAAACAAATTTTCCTAATCTTTCTGTTCAAGCGCCATCTAC,0.165
19,GATGATTGTTCTCCCAGCTGATGAATTCGCGATATCGAGTAAACAAATTTTCCTAATCTTTCTGTTCAAGCGCCATCTAC,0.586
20,GATGATTGTTCTCCCAGCTGATGAATTAAGTAGATCGAGTAAACAAATTTTCCTAATCTTTCTGTTCAAGCGCCATCTAC,0.431
21,GATGATTGTTCTCCCAGCTGATGAATTTTCAGACTCGAGTAAACAAATTTTCCTAATCTTTCTGTTCAAGCGCCATCTAC,0.227
